# Measured values taken from paper PMC4336329 (PLoS ONE, 2015).
# Out of some 310,000 compounds screened, about 14,000 (4.5%) showed an effect of 50% or more. Effects have a minus sign here. This is one part of the list.
# Target: human ether-à-go-go-related gene (hERG) potassium channel (human, UniProt Q12809)
# Assay: primary screen, population patch clamp on CHO cells stably expressing hERG
# 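Note: peak tail current of the secondary pulse compared with the same well before compound.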
# Chain of human ether-à-go-go-related gene (hERG) potassium channel (Q12809 whole entry, looked up): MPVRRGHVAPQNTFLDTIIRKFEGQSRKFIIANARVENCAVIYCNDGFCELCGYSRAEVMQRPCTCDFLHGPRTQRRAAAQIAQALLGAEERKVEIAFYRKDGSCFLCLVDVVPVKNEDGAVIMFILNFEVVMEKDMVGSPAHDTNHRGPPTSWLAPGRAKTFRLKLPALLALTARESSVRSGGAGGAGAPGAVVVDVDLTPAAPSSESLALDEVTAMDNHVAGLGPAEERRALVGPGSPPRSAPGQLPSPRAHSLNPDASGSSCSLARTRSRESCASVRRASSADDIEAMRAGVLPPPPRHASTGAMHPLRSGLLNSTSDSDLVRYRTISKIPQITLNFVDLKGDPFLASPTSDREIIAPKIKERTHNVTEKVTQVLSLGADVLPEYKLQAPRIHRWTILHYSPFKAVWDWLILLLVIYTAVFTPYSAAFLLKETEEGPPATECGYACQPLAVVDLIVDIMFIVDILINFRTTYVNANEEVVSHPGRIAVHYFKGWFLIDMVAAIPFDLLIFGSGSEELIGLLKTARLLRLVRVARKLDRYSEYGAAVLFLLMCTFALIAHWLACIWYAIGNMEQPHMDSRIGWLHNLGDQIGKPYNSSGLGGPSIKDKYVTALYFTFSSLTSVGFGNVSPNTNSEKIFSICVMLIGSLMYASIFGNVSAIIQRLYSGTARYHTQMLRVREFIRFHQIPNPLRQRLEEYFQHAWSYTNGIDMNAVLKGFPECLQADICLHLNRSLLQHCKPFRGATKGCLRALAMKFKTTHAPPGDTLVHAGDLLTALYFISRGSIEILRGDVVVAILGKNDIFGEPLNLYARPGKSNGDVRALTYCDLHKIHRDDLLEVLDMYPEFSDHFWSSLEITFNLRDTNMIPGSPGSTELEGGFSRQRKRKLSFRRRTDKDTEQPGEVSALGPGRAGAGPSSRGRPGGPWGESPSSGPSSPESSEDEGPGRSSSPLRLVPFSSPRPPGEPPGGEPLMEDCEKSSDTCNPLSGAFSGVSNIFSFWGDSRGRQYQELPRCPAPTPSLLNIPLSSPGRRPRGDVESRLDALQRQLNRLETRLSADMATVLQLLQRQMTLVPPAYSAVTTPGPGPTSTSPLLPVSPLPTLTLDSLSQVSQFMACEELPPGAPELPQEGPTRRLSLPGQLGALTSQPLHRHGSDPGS
row,Compound,"hERG current change (%, negative = inhibition) at 10uM"
1,Cc1[nH]n2c(=O)cc(-c3ccc([N+](=O)[O-])cc3)nc2c1-c1ccccc1,-3.21%
2,Cc1noc(C)c1COC(=O)C(c1ccccc1)c1ccccc1,6.08%
3,Cc1[nH]n(-c2ccc([N+](=O)[O-])cc2)c(=O)c1C=NCC1CCCO1 (centres unmarked),0.91%
4,CC(C)C(c1nnnn1C(C)(C)C)N1CCN(Cc2cccnc2)CC1.Cl (centres unmarked),7.59%
5,Cc1ccc(OCc2ccc(C(=O)NNC(=S)NCC3CCCO3)o2)c([N+](=O)[O-])c1 (centres unmarked),-17.1%
6,Cc1ccc(/C=C/S(=O)(=O)N2CCC(C(=O)O)CC2)cc1,16.1%
7,COCCn1c(=S)[nH]c2cc(C(=O)N3CCN(c4ccc(F)cc4)CC3)ccc2c1=O,-18.8%
8,CCN1CCN(c2c(Cl)cccc2NC(=O)c2ccco2)CC1,-73.4%
9,COc1ccc2nc(SCC(=O)Nc3ccc(S(=O)(=O)Nc4onc(C)c4C)cc3)[nH]c2c1,-0.044%
10,O=C1/C(=C/c2cccs2)N=C(c2cccs2)N1Nc1ccccc1,-6.58%
11,CCNC(=O)COC(=O)/C=C/c1cccc([N+](=O)[O-])c1,1.68%
12,CN(C(=S)Nc1ccc(F)cc1)C1(c2ccccc2Cl)CCCCC1=O (centres unmarked),-4.67%
13,Cl.c1ccc(-c2cc(-c3ccc(N4CCOCC4)cc3)nc3ccccc23)cc1,4.95%
14,CC1=NN(c2ccccc2)C(=O)C1C=Nc1ccccc1O (centres unmarked),4.96%
15,CCn1cnc2scc(-c3ccc(OC)cc3)c2c1=O,1.82%
16,CCn1c(SCC(=O)Nc2ccc(C(C)=O)cc2)nc2nc3c(cc2c1=O)CCCC3,-20.5%
17,O=C1[C@H](CC[C@H](O)c2ccc(F)cc2)[C@@H](c2ccc(O)cc2)N1c1ccc(F)cc1,-7.87%
18,CCCc1cc(=O)[nH]c(SCC(=O)N(CC)c2c(N)n(Cc3ccccc3)c(=O)[nH]c2=O)n1,18%
19,Cc1ccc2c(c1)COc1c3ccc(C(=O)NCCO)cc3nn1-2,1.96%
20,O=C(NNC(=O)c1ccncc1)NC1CCCCC1,39.6%
21,CCSc1ccccc1C(=O)Nc1ccc(S(=O)(=O)NC(C)=O)cc1,7.71%
22,O=C(NCC1CCCO1)C12CN(Cc3ccccc3)CC1C(c1cccc([N+](=O)[O-])c1)=NO2 (centres unmarked),-45.2%
23,CCn1cc(CNC(=O)CCSc2nc(-c3ccco3)cc(C(F)(F)F)n2)cn1,-9.22%
